The source of these data is PubChem BioAssay AID463173 (ICCB-Longwood Screening Facility, Harvard Medical School, 2010).

Among all 52,000 compounds or so, about 1,700 (3.3%) were called active. Cut-off read from the data, not from the text of the source: active = survival mostly below about 52% (no sharp cut-off); inactive = mostly above about 56%. Some of the results follow.

The test system of this test is Wild type. In words: growth inhibition of S. aureus wild type versus tarO mutant, primary screen, teichoic acid synthesis inhibitors, RN4220, OD600 (AID 463173). The note with it: S. aureus RN4220 wild type/DeltatarO growth, OD600, 18 h, stronger effect = lower value, screened at 18.75 µg/mL (by protocol).
`COc1ccc(CNC(=O)C(Cc2ccccc2)NS(=O)(=O)c2ccc3c(c2)CCN3C(C)=O)cc1` (centres undefined): the survival is inactive: 127%.
The figure for `O=C(CNCc1ccco1)Nc1ccc(Oc2ccccc2)cc1` is inactive: 115%; for `COc1cc(NC(=O)CCc2c(C)nc3c(-c4ccc(F)cc4)c(C)nn3c2C)cc(OC)c1OC` it is inactive: 146%.
For the compound `COc1ccc(C)cc1S(=O)(=O)NCc1ccccc1`, the survival is inactive: 104%.
Regarding `CCOc1ccc(NC(=O)CC2C(=O)N(c3ccc(OC)cc3)C(=O)N2C2CCCCC2)cc1` (centres undefined), the survival was inactive: 133%.
Take `CCCSc1ncc(Cl)c(C(=O)N2CCN(c3cccc(Cl)c3)CC2)n1`: the survival is inactive: 82%.
In the case of `Cc1ccc2c(C)nc(Nc3nccc(C)n3)nc2c1`, the survival was inactive: 110%.
For the compound `CCOc1ccc(C(=O)Oc2c(Sc3ccccc3)c(C)nn2C(C)(C)C)cc1OCC`, the survival was inactive: 61%.
With `Cc1nc(SCC(=O)Nc2ccc(C)c(Cl)c2)cc(-c2ccccc2)n1`, the survival is inactive: 68%.
For the compound `CCc1ccc2occ(CC(=O)Nc3ccc(OC)c(Cl)c3)c2c1`, the survival was inactive: 85%.
`COc1ccc(CN(Cc2ccco2)C(=O)COc2ccccc2OC)cc1`: the survival was inactive: 82%.
`CC(=O)c1ccc(NC(=O)Nc2sc3nc4n(c(=O)c3c2C)CCC(C)CC4)cc1` (centres undefined): the survival was inactive: 99%.
As to `CCc1ccccc1-n1cnc2cc(C(=O)NC3CCCCCC3)ccc21`, the survival is inactive: 22%.
With `O=C(c1ccc2c(c1)CCN2S(=O)(=O)c1ccccc1)N1CCN(c2ccccc2F)CC1`, the survival was inactive: 83%.
As for `CC(C)c1ccc(CNC(=O)c2ccc(N3CCCC3)c(NC(=O)NCc3ccccc3)c2)cc1`, the survival was inactive: 89%.
`COc1ccccc1N1CCN(S(=O)(=O)c2ccc(F)c(C(=O)Nc3ccc(Cl)cc3C(F)(F)F)c2)CC1`: the survival is inactive: 134%.
The same measure for `O=C(Nc1ccccc1Cl)[C@H](CSCc1ccccc1)N1Cc2ccccc2C1=O`: inactive: 62%.
The same measure for `O=C(CN1C(=O)CSc2ccc(S(=O)(=O)N3CCCC3)cc21)NCc1ccccc1Cl`: inactive: 95%; for `CC1(C)Cc2ccccc2C(=NCCC(=O)O)N1`: inactive: 100%; for `CSc1ccc(-c2nc3cccc(C)n3c2Nc2ccc3c(c2)OCO3)cc1`: inactive: 88%.
The same measure for `COc1ccc(-c2nnc(SC(C)C(=O)O)o2)cc1` (centres undefined): inactive: 131%; for `COc1ccc(N2C(=O)C(CC(=O)Nc3ccccc3)N(CCC3=CCCCC3)C2=O)cc1` (centres undefined): inactive: 81%.
In the case of `Cc1[nH]c2ccccc2c1C1(O)C(=O)N(Cc2ccccc2)c2ccc(Cl)cc21` (centres undefined), the survival is inactive: 28%.
The same measure for `CC(=O)N1CCCc2cc(S(=O)(=O)N3CCCC(C(=O)NC(C)C)C3)ccc21` (centres undefined): inactive: 127%; for `Cc1ccc(OCC(=O)Nc2c(C(=O)c3ccc(Cl)cc3)oc3ccccc23)cc1C`: inactive: 129%.
The same measure for `CCCCNC(=O)CCc1c(C)nc2cc(-c3ccccc3)nn2c1C`: inactive: 84%.
Consider `CS(=O)(=O)Nc1ccc(C2=NN(S(C)(=O)=O)C(c3ccc4c(c3)OCO4)C2)cc1` (centres undefined), for which the survival was inactive: 100%.
Consider `CC(C)Oc1ccc(CNC(=O)c2sc3ncccc3c2-n2cccc2)cc1`, for which the survival was inactive: 64%.
For the compound `COc1ccc(-n2nc(C(=O)Nc3ccc(C(C)=O)cc3)nc2-c2ccccc2)cc1`, the survival was inactive: 51%.
Regarding `COc1ccc(-c2nnc(SCCOc3ccccc3C)o2)cc1OC`, the survival was inactive: 85%.
The same measure for `O=C(COc1ccccc1)N/N=C/c1ccccc1`: inactive: 110%; for `Cc1cc(C(F)F)n2ncc(C(=O)N3CCCCC3)c2n1`: inactive: 111%.
For the compound `O=S(=O)(c1ccc(Cl)cc1)c1nc(-c2cccs2)oc1SCc1ccccc1F`, the survival was inactive: 70%.
`Cc1cn(C)c(CC(=O)Nc2ccc(F)cc2Cl)c1C(=O)O`: the survival was inactive: 76%.
Consider `Cc1cc(C)cc(OCCSc2nc3ccc(NC(=O)COc4ccccc4)cc3s2)c1`, for which the survival is inactive: 87%.
As to `Cc1ccc(OCC(=O)Nc2nonc2-c2ccc(Br)cc2)cc1C`, the survival is inactive: 68%.
Take `COc1ccc(-c2ccc(NS(=O)(=O)c3cc(C)c(C)cc3C)cc2)nn1`: the survival was inactive: 72%.
Consider `CCn1nc(C)c2c(-c3ccccc3)cc(=O)n(C(C)C(=O)Nc3cc(C)ccc3C)c21` (centres undefined), for which the survival was inactive: 73%.
The same measure for `O=C(Nc1nc2c(F)cccc2s1)c1ccc(S(=O)(=O)N2CCCc3ccccc32)cc1`: inactive: 81%; for `CCOC(=O)C(CC)N1CCN(Cc2ccc(F)cc2)C(=O)C1=O` (centres undefined): inactive: 87%; for `CCn1c(SCC(=O)c2ccc(C)cc2)nnc1C1CC1`: inactive: 95%.
With `COc1ccc(N2CCN(C(=O)C(C)n3nc(C)c4sc5ccccc5c4c3=O)CC2)cc1` (centres undefined), the survival is inactive: 102%.
As for `CCc1ccc(NC(=O)Cn2nc(SC)c(S(=O)(=O)c3ccc(OC)cc3)c2N)cc1`, the survival is inactive: 128%.
For `Clc1ccc(CCNC(c2ccc(Cl)cc2)c2nnc(-c3ccccc3)o2)cc1` (centres undefined), the survival is inactive: 86%.
The figure for `CCOC(=O)c1c(NC(=O)C2c3ccccc3Oc3ccccc32)sc2c1CCC(CC)C2` (centres undefined) is inactive: 65%; for `CCc1ccc(NC(=O)Cn2c(=O)n(CCCC(=O)NCc3ccc4c(c3)OCO4)c(=O)c3ccccc32)cc1` it is inactive: 101%; for `CCOC(=O)c1c(S(=O)(=O)N2CCCC(C(=O)N3CCN(c4cc(C)ccc4C)CC3)C2)c(C)n(C)c1C` (centres undefined) it is inactive: 72%.
The figure for `Cc1ccc2c(c1)N(Cc1cccc(C(F)(F)F)c1)C(=O)C(C)O2` (centres undefined) is inactive: 107%; for `CCS(=O)(=O)NCC(c1ccco1)N1CCN(c2ccc(F)cc2)CC1` (centres undefined) it is inactive: 82%; for `CC(=O)C1=C(c2cccc([N+](=O)[O-])c2)N(C(C)=O)n2c(nnc2-c2ccc(C)cc2)S1` it is inactive: 85%.
With `O=S(=O)(c1ccc(-c2cnc(C3CC3)o2)cc1)N1CCN(c2ccccc2F)CC1`, the survival was inactive: 85%.
The same measure for `CN(C)c1ccc(C(=O)N2CCN(c3ccccc3)CC2)cc1`: inactive: 113%.
Consider `COc1cc2c(cc1OC)n(CC(=O)c1ccc(C)cc1C)c(=O)n1nc(CCn3nc(C)cc3C)nc21`, for which the survival was inactive: 74%.
The figure for `Cc1nn2c(C)c(C(=O)N3CCN(c4ccc(Cl)cc4)CC3)cnc2c1-c1ccc(F)cc1` is inactive: 72%.
The same measure for `COc1ccc(NC(=O)c2cc(-c3ccccc3F)no2)cc1`: inactive: 88%; for `Cc1cccc(Nc2sc(C(=O)c3ccc(Cl)cc3)c(N)c2C(N)=O)c1`: inactive: 45%.
For the compound `COc1cccc(CNC(=O)Cn2nc(C)c3sc4ccccc4c3c2=O)c1OC`, the survival is inactive: 94%.
For the compound `O=C(NCCCN1CCN(c2cccc(Cl)c2)CC1)c1ccc2nc(Cc3ccccc3)oc2c1`, the survival is inactive: 75%.
Take `CCOc1ccc(C2=CSC3=NCCN23)cc1Cl`: the survival was inactive: 130%.
For `CCn1cc(C(=O)N2CCN(c3cccc(Cl)c3)CC2)c(=O)c2cc(S(=O)(=O)N3CCC(C)CC3)ccc21`, the survival was inactive: 96%.
As for `Cc1ccc2c(=O)cc(CSc3ncn[nH]3)[nH]c2c1C`, the survival was inactive: 74%.
`CCOC(=O)c1c(C)[nH]c(C)c1S(=O)(=O)N1CCC(C(=O)N2CCN(c3ccc(F)cc3)CC2)CC1`: the survival is inactive: 73%.
The same measure for `Cc1cccc(C)c1OCC(=O)N(Cc1ccco1)Cc1ccco1`: inactive: 81%.
The same measure for `Cc1ccnc(NS(=O)(=O)c2ccc(NC(=O)c3ccc(C)c(C)c3)cc2)n1`: inactive: 67%; for `C=Cc1ccc(Cn2c(C)c(CNCCc3ccc(OCC)cc3)c(C(=O)O)c2C)cc1`: inactive: 97%; for `Cc1ccc2nc(NC(=O)c3ccc(S(=O)(=O)N4CCC(C)CC4)cc3)sc2c1`: inactive: 74%.
The same measure for `Cc1ccccc1CN1C(=O)c2ccccc2Sc2ccc(C(=O)NCCc3ccccc3)cc21`: inactive: 95%.
In the case of `O/N=C1\CCCCC1C1=CCCCC1` (centres undefined), the survival was inactive: 111%.
Take `CCCCNC(=O)c1ccc2c(c1)N=C(CC)c1ccccc1S2`: the survival was inactive: 71%.
On to `CCc1cccc(CC)c1NC(=O)c1c(C)oc2ccc(O)c(CN3CCCC3)c12`, for which the survival is inactive: 117%.
`NC1=NC2(CCCCC2)N(c2ccc(F)cc2)C(N)=N1`: the survival is inactive: 105%.
Take `Cc1ccc(N2CC(NC(=O)c3cccs3)CC2=O)cc1` (centres undefined): the survival was inactive: 87%.
Take `CN1CCN(CCNC(=O)c2cnn(-c3ccc(F)cc3)c2C2CCN(C(=O)OC(C)(C)C)CC2)CC1`: the survival was inactive: 75%.
The figure for `O=C(CCCN1C(=O)c2cccnc2Oc2ccc(Cl)cc21)NCc1ccc(F)cc1` is inactive: 72%.
For `COc1ccc(C2(C(=O)O)CCCC2)cc1OC`, the survival is inactive: 112%.
For `Cc1ccc(N2C(=O)CSC23C(=O)N(CC(=O)NCc2ccccc2)c2ccccc23)cc1` (centres undefined), the survival was inactive: 120%.
On to `O=C(Nc1ccccc1)Nc1nnc(SCC(=O)N2CCCCC2)s1`, for which the survival was inactive: 131%.
As to `CC1=C(c2ccc(C)c(C)c2)S(=O)(=O)N(Cc2ccc(C(=O)Nc3cc(F)ccc3F)cc2)C1=O`, the survival is inactive: 69%.
For `CCOc1ccc(-n2cc(-c3ccccc3)c3c(NC4CCCC4)ncnc32)cc1`, the survival is inactive: 126%.
`O=C(CN1C(=O)C2(SCC(=O)N2c2ccc(F)cc2)c2ccccc21)NC1CCCCC1` (centres undefined): the survival was inactive: 71%.
The same measure for `Cc1cc2oc(C(=O)N(Cc3ccc(N(C)C)cc3)Cc3ccco3)c(C)c2cc1Cl`: inactive: 87%; for `Cc1ccccc1Nc1nc(N)c(C(=O)c2ccccc2Cl)s1`: inactive: 101%.
As for `CS(=O)(=O)N(CC(=O)N1CCC(C(N)=O)CC1)c1cccc(C(F)(F)F)c1`, the survival is inactive: 107%.
`CCn1c(SCC(=O)N2CCc3ccccc32)nnc1C(C)C`: the survival was inactive: 102%.
For `CCCCc1ccc(NC(=O)CSc2nc(=O)[nH]c3c2CCCC3)cc1`, the survival was inactive: 81%.
As for `O=C(CSc1nc2c([nH]c3ccccc32)c(=O)n1-c1ccccc1F)Nc1cccc(C(F)(F)F)c1`, the survival is inactive: 71%.
Turning to `CCOc1ccc(S(=O)(=O)N2CCN(Cc3nc4ccc(C)cc4o3)CC2)cc1`, the survival was inactive: 73%.
The same measure for `O=C1C(=O)N(C2CCN(C(=O)c3cccc(Cl)c3)CC2)CCN1Cc1ccc(F)cc1`: inactive: 77%.
For the compound `COC(=O)CCN(c1ccccc1)C(CNS(=O)(=O)c1ccccc1)c1ccccc1` (centres undefined), the survival is inactive: 114%.
